One assay has as its target Recombinant heterodimeric HCV NS3/NS4A protease (strain 1a) (Hepatitis C virus genotype 1a, UniProt P27958). The assay can be described thus: Spectrophotometric assay for HCV protease inhibitory activity (chromogenic ester substrates). To be noted: Table 1, Ki* range class. Format: biochemical. From the text: The present invention relates to novel HCV protease inhibitors. This utility can be manifested in their ability to inhibit the HCV NS2/NS4a serine protease.
Assay for HCV Protease Inhibitory Activity:
Spectrophotometric Assay: Spectrophotometric assay for the HCV serine protease can be performed on the inventive compounds by following the procedure described by R. Zhang et al, Analytical Biochemistry, 270 (1999) 268-275, the disclosure of which is incorporated herein by reference. The assay based on the proteolysis of chromogenic ester substrates is suitable for the continuous monitoring of HCV NS3 protease activity. The substrates are derived from the P side of the NS5A-NS5B junction sequence (Ac-DTEDVVX(Nva), where X=A or P) whose C-terminal carboxyl groups are esterified with one of four different chromophoric alcohols (3- or 4-nitrophenol, 7-hydroxy-4-methyl-coumarin, or 4-phenylazophenol). Illustrated below are the synthesis, characterization and application of these novel spectrophotometric ester substrates to high throughput screening and detailed kinetic evaluation of HCV NS3 protease inhibitors.
Protein concentrations are determined by the Biorad dye method using recombinant HCV protease standards previously quantified by amino acid analysis. Prior to assay initiation, the enzyme storage buffer (50 mM sodium phosphate pH 8.0, 300 mM NaCl, 10% glycerol, 0.05% lauryl maltoside and 10 mM DTT) is exchanged for the assay buffer (25 mM MOPS pH 6.5, 300 mM NaCl, 10% glycerol, 0.05% lauryl maltoside, 5 μM EDTA and 5 μM DTT) utilizing a Biorad Bio-Spin P-6 prepacked column.
Protease Assay: HCV protease assays are performed at 30° C. using a 200 μl reaction mix in a 96-well microtiter plate. Assay buffer conditions (25 mM MOPS pH 6.5, 300 mM NaCl, 10% glycerol, 0.05% lauryl maltoside, 5 μM EDTA and 5 μM DTT) are optimized for the NS3/NS4A heterodimer (D. L. Sali et al, ibid.)). Typically, 150 μl mixtures of buffer, substrate and inhibitor are placed in wells (final concentration of DMSO≦4% v/v) and allowed to preincubate at 30° C. for approximately 3 minutes. Fifty μls of prewarmed protease (12 nM, 30° C.) in assay buffer, is then used to initiate the reaction (final volume 200 μl).The plates are monitored over the length of the assay (60 minutes) for change in absorbance at the appropriate wavelength (340 nm for 3-Np and HMC, 370 nm for PAP, and 400 nm for 4-Np) using a Spectromax Plus microtiter plate reader equipped with a monochrometer (acceptable results can be obtained with plate readers that utilize cutoff filters). Proteolytic cleavage of the ester linkage between the Nva and the chromophore is monitored at the appropriate wavelength against a no enzyme blank as a control for non-enzymatic hydrolysis. The evaluation of substrate kinetic parameters is performed over a 30-fold substrate concentration range (˜6-200 μM). Initial velocities are determined using linear regression and kinetic constants are obtained by fitting the data to the Michaelis-Menten equation using non-linear regression analysis (Mac Curve Fit 1.1, K. Raner). Turnover numbers (kcat) are calculated assuming the enzyme is fully active.
Evaluation of Inhibitors and Inactivators: The inhibition constants (Ki) for the competitive inhibitors Ac-D-(D-Gla)-L-I-(Cha)-C—OH (27), Ac-DTEDVVA(Nva)-OH and Ac-DTEDVVP(Nva)-OH are determined experimentally at fixed concentrations of enzyme and substrate by plotting vo/vi vs. inhibitor concentration ([I]o) according to the rearranged Michaelis-Menten equation for competitive inhibition kinetics: vo/vi=1+[I]o/(Ki(1+[S]o/Km)), where vo is the uninhibited initial velocity, vi is the initial velocity in the presence of inhibitor at any given inhibitor concentration ([I]o) and [S]o is the substrate concentration used.
Broadly, the Ki is a measure of affinity in units of concentration, obtained from inhibition or displacement. Regarding `CCCC(NC(=O)[C@@H]1[C@@H]2[C@H](CN1C(=O)[C@@H](NC(=O)N[C@H](COC(=O)N(C)C)C(C)(C)C)C1Cc3ccccc3C1)C2(C)C)C(=O)C(N)=O` (stereo partly shown) [Example 1036], the Ki was below 75 nM. As for `C=CCNC(=O)C(=O)C(CCC)NC(=O)[C@@H]1[C@@H]2[C@H](CN1C(=O)[C@@H](NC(=O)N[C@H](COC(=O)N(C)C)C(C)(C)C)C1Cc3ccccc3C1)C2(C)C` (stereo partly shown) [Example 1037], the inhibition constant (Ki) was in the range of 75 to 250 nM. Still for that read-out and setting: as for `C=CCNC(=O)C(=O)C(CC1CC1)NC(=O)[C@@H]1[C@@H]2[C@H](CN1C(=O)[C@@H](NC(=O)N[C@H](COC(=O)N(C)C)C(C)(C)C)C1Cc3ccccc3C1)C2(C)C` (stereo partly shown) [Example 1038], the figure is 75 to 250 nM; as for `C=CCNC(=O)C(=O)C(CC1CC1)NC(=O)[C@@H]1[C@@H]2[C@H](CN1C(=O)[C@@H](NC(=O)N[C@H](COC(=O)NC)C(C)(C)C)C1Cc3ccccc3C1)C2(C)C` (stereo partly shown) [Example 1039], below 75 nM. On the same count and under the same terms, for `C=CCNC(=O)C(=O)C(CCC)NC(=O)[C@@H]1[C@@H]2[C@H](CN1C(=O)[C@@H](NC(=O)N[C@H](COC(=O)NC)C(C)(C)C)C1Cc3ccccc3C1)C2(C)C` (stereo partly shown) [Example 1040] the value was below 75 nM; for `CNC(=O)OC[C@@H](NC(=O)N[C@H](C(=O)N1C[C@H]2[C@@H]([C@H]1C(=O)NC(CC1CC1)C(=O)C(N)=O)C2(C)C)C1Cc2ccccc2C1)C(C)(C)C` (stereo partly shown) [Example 1041], below 75 nM; for `CNC(=O)OC[C@@H](NC(=O)N[C@H](C(=O)N1C[C@H]2[C@@H]([C@H]1C(=O)NC(CC1CCC1)C(=O)C(N)=O)C2(C)C)C1Cc2ccccc2C1)C(C)(C)C` (stereo partly shown) [Example 1042], below 75 nM. Consider `C=CCNC(=O)C(=O)C(CCCC)NC(=O)[C@@H]1[C@@H]2[C@H](CN1C(=O)[C@@H](NC(=O)N[C@H](COC(=O)NC)C(C)(C)C)C1Cc3ccccc3C1)C2(C)C` (stereo partly shown) [Example 1043], for which the Ki is below 75 nM. With `C=CCNC(=O)C(=O)C(CCCC)NC(=O)[C@@H]1[C@@H]2[C@H](CN1C(=O)[C@@H](NC(=O)N[C@H](COC(=O)NCC)C(C)(C)C)C1Cc3ccccc3C1)C2(C)C` (stereo partly shown) [Example 1044], the Ki is below 75 nM. As to `C=CCNC(=O)C(=O)C(CCCC)NC(=O)[C@@H]1[C@@H]2[C@H](CN1C(=O)[C@@H](NC(=O)N[C@H](COC(=O)NC(C)C)C(C)(C)C)C1Cc3ccccc3C1)C2(C)C` (stereo partly shown) [Example 1045], the inhibition constant (Ki) was below 75 nM. With `C=CCNC(=O)C(=O)C(CCCC)NC(=O)[C@@H]1[C@@H]2[C@H](CN1C(=O)[C@@H](NC(=O)N[C@H](COC(=O)NC(C)(C)C)C(C)(C)C)C1Cc3ccccc3C1)C2(C)C` (stereo partly shown) [Example 1046], the Ki was below 75 nM. The same measure, in the same setting: for `C=CCNC(=O)C(=O)C(CCC(F)(F)F)NC(=O)[C@@H]1[C@@H]2[C@H](CN1C(=O)[C@@H](NC(=O)N[C@H](COC(=O)NC)C(C)(C)C)C1Cc3ccccc3C1)C2(C)C` (stereo partly shown) [Example 1047] the value was below 75 nM; for `C=CCNC(=O)C(=O)C(CCC)NC(=O)[C@@H]1[C@@H]2[C@H](CN1C(=O)[C@@H](NC(=O)N[C@H](COC(=O)NC(C)C)C(C)(C)C)C1CCCC1)C2(C)C` (stereo partly shown) [Example 1048], below 75 nM; for `C=CCNC(=O)C(=O)C(CCCC)NC(=O)[C@@H]1[C@@H]2[C@H](CN1C(=O)[C@@H](NC(=O)N[C@H](COC(=O)NC(C)C)C(C)(C)C)C1CCCC1)C2(C)C` (stereo partly shown) [Example 1049], below 75 nM. Same read-out and setting: for `C=CCNC(=O)C(=O)C(CC1CC1)NC(=O)[C@@H]1[C@@H]2[C@H](CN1C(=O)[C@@H](NC(=O)N[C@H](COC(=O)NC(C)C)C(C)(C)C)C1CCCC1)C2(C)C` (stereo partly shown) [Example 1050] the value was 75 to 250 nM. As for `C=CCNC(=O)C(=O)C(CCC)NC(=O)[C@@H]1[C@@H]2[C@H](CN1C(=O)[C@@H](NC(=O)N[C@H](COC(=O)N(C)C)C(C)(C)C)C(C)(C)C)C2(C)C` (stereo partly shown) [Example 1051], the inhibition constant Ki is below 75 nM.

With `CN(C)C(=O)OC[C@@H](NC(=O)N[C@H](C(=O)N1C[C@H]2[C@@H]([C@H]1C(=O)NC(CC1CC1)C(=O)C(N)=O)C2(C)C)C(C)(C)C)C(C)(C)C` (stereo partly shown) [Example 1052], the Ki was below 75 nM. For `CN(C)C(=O)OC[C@@H](NC(=O)N[C@H](C(=O)N1C[C@H]2[C@@H]([C@H]1C(=O)NC(CC1CCC1)C(=O)C(N)=O)C2(C)C)C(C)(C)C)C(C)(C)C` (stereo partly shown) [Example 1053], the inhibition constant Ki is below 75 nM. On to `CC(C)NC(=O)OC[C@@H](NC(=O)N[C@H](C(=O)N1C[C@H]2[C@@H]([C@H]1C(=O)NC(CC1CC1)C(=O)C(N)=O)C2(C)C)C1CCCC1)C(C)(C)C` (stereo partly shown) [Example 1054], for which the inhibitory constant (Ki) is below 75 nM. As for `CC(C)NC(=O)OC[C@@H](NC(=O)N[C@H](C(=O)N1C[C@H]2[C@@H]([C@H]1C(=O)NC(CC1CCC1)C(=O)C(N)=O)C2(C)C)C1CCCC1)C(C)(C)C` (stereo partly shown) [Example 1055], the inhibition constant (Ki) was below 75 nM. Take `C=CCNC(=O)C(=O)C(CCC)NC(=O)[C@@H]1[C@@H]2[C@H](CN1C(=O)[C@@H](NC(=O)N[C@H](COC(=O)NC(C)C)C(C)(C)C)C1CCCCC1)C2(C)C` (stereo partly shown) [Example 1056]: the Ki was below 75 nM. Take `C=CCNC(=O)C(=O)C(CCC)NC(=O)[C@@H]1[C@@H]2[C@H](CN1C(=O)[C@@H](NC(=O)N[C@H](COC(=O)NC(C)(C)C)C(C)(C)C)C1CCCCC1)C2(C)C` (stereo partly shown) [Example 1057]: the Ki is below 75 nM. With `C=CCNC(=O)C(=O)C(CCC)NC(=O)[C@@H]1[C@@H]2[C@H](CN1C(=O)[C@@H](NC(=O)N[C@H](COC(=O)NCC)C(C)(C)C)C1CCCCC1)C2(C)C` (stereo partly shown) [Example 1058], the inhibition constant Ki was below 75 nM. Regarding `C=CCNC(=O)C(=O)C(CCC)NC(=O)[C@@H]1[C@@H]2[C@H](CN1C(=O)[C@@H](NC(=O)N[C@H](COC(=O)NC)C(C)(C)C)C(C)(C)C)C2(C)C` (stereo partly shown) [Example 1059], the inhibition constant (Ki) is below 75 nM. As to `CNC(=O)OC[C@@H](NC(=O)N[C@H](C(=O)N1C[C@H]2[C@@H]([C@H]1C(=O)NC(CC1CC1)C(=O)C(N)=O)C2(C)C)C(C)(C)C)C(C)(C)C` (stereo partly shown) [Example 1060], the Ki was below 75 nM. Same read-out and setting: for `CNC(=O)OC[C@@H](NC(=O)N[C@H](C(=O)N1C[C@H]2[C@@H]([C@H]1C(=O)NC(CC1CCC1)C(=O)C(N)=O)C2(C)C)C(C)(C)C)C(C)(C)C` (stereo partly shown) [Example 1061] the value was below 75 nM; for `CCCC(NC(=O)[C@@H]1[C@@H]2[C@H](CN1C(=O)[C@@H](NC(=O)N[C@H](COC(=O)NCC)C(C)(C)C)C1Cc3ccccc3C1)C2(C)C)C(=O)C(=O)NCCOC` (stereo partly shown) [Example 1062], 75 to 250 nM. On to `CCCCC(NC(=O)[C@@H]1[C@@H]2[C@H](CN1C(=O)[C@@H](NC(=O)N[C@H](COC(=O)NCC)C(C)(C)C)C1Cc3ccccc3C1)C2(C)C)C(=O)C(=O)NCCOC` (stereo partly shown) [Example 1063], for which the inhibition constant (Ki) fell in the range of 75 to 250 nM. `CCCC(NC(=O)[C@@H]1[C@@H]2[C@H](CN1C(=O)[C@@H](NC(=O)N[C@H](COC(=O)NCC)C(C)(C)C)C1Cc3ccccc3C1)C2(C)C)C(=O)C(=O)NCC` (stereo partly shown) [Example 1064]: the Ki lay in the range of 75 to 250 nM. Same read-out and setting: as for `C#CCNC(=O)C(=O)C(CCCC)NC(=O)[C@@H]1[C@@H]2[C@H](CN1C(=O)[C@@H](NC(=O)N[C@H](COC(=O)NCC)C(C)(C)C)C1Cc3ccccc3C1)C2(C)C` (stereo partly shown) [Example 1065], the figure is below 75 nM; as for `C#CCNC(=O)C(=O)C(CCC)NC(=O)[C@@H]1[C@@H]2[C@H](CN1C(=O)[C@@H](NC(=O)N[C@H](COC(=O)NCC)C(C)(C)C)C1Cc3ccccc3C1)C2(C)C` (stereo partly shown) [Example 1066], below 75 nM; as for `CCCCC(NC(=O)[C@@H]1[C@@H]2[C@H](CN1C(=O)[C@@H](NC(=O)N[C@H](COC(=O)NCC)C(C)(C)C)C1Cc3ccccc3C1)C2(C)C)C(=O)C(=O)NC` (stereo partly shown) [Example 1067], below 75 nM. Regarding `CCCCC(NC(=O)[C@@H]1[C@@H]2[C@H](CN1C(=O)[C@@H](NC(=O)N[C@H](COC(=O)NCC)C(C)(C)C)C1Cc3ccccc3C1)C2(C)C)C(=O)C(=O)NCCC` (stereo partly shown) [Example 1068], the inhibition constant Ki fell in the range of 75 to 250 nM.

Staying with this assay, now noted: Table 6, numeric Ki*.
Consider `C=CCNC(=O)C(=O)C(CCC)NC(=O)[C@@H]1[C@@H]2[C@H](CN1C(=O)[C@@H](NC(=O)N[C@H](COC(=O)NC(C)C)C(C)(C)C)C1CCCCC1)C2(C)C` (stereo partly shown) [Example 1056], for which the Ki was found to be 30 nM.

For the origin of these results see patent publication US7425576B2, “Compounds as inhibitors of hepatitis C virus NS3 serine protease” (Schering Corporation, priority 2004, dated 2008).
